Among all 46,000 compounds or so, about 60 (0.1%) were called active. Not shown: some 3% with an inconclusive outcome. The call rests on the fitted dose curve; in most records, active means well fitted inhibition curve with a large enough effect; inconclusive means small, poorly fitted or top-dose-only effect; inactive means no such curve, though single readings can be large or run the other way. This is one part of the list.
Experiment: Primary qHTS assay for Inhibitors of ovarian cancer metastasis using an organotypic tumor microenvironment (TME) model. Further: nearly all actives have a fitted effect of over 65% in size.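 On Potency: count of GFP cancer cells still attached after washing and fixation.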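 On activity change, negative = inhibition: plate controls were DMSO wells for no effect and tomatine positive control wells for full effect.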
Conditions: SKOV3ip1-GFP adhesion/invasion on 3D omental model, fluorescence; series mostly up to 45.8 µM; activity change, negative = inhibition: at the top concentration
In short: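 qHTS, 4-pt dose (0.36-46 umol/L); SKOV3ip1-GFP, 1,200 cells/well, no FBS; primary omental fibroblast/mesothelial co-culture 48 h pre-grown; 2 h RT + 16 h 37 C; PBS wash, 4% PFA; GFP count 488/509 nm.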
With `COc1cccc(C(=O)n2nc(-c3ccco3)nc2NCc2cccs2)c1` the “activity change, negative = inhibition” value was inactive: 5.02%. In the case of `Cc1cccc(CN2C(=O)c3ccccc3S(=O)(=O)c3ccc(C(=O)N4CCN(c5cc(C)ccc5C)CC4)cc32)c1`, the “activity change, negative = inhibition” value is reported as inactive: 4.95%. With `COc1ccc(Br)cc1CNC(=O)c1ccc2c(c1)nc1n2CCCCC1` the “activity change, negative = inhibition” value was inactive: -4.3%. In the case of `Cc1cc(C)cc(N2CCn3c2nc2c3c(=O)n(CCc3ccccc3)c(=O)n2C)c1`, the “activity change, negative = inhibition” value is reported as inactive: -4.53%. With `COc1ccc(N(CC(=O)NCc2ccc(C)cc2)S(=O)(=O)c2c(C)[nH]c(=O)[nH]c2=O)cc1` the “activity change, negative = inhibition” value was inactive: -8.02%. For `Cc1c(C(=O)NCc2ccccc2Cl)sc2nc3n(c(=O)c12)CCC3`, the “activity change, negative = inhibition” value was inactive: -9.44%. With `COc1cccc(N2CCN(Cc3nnc(-c4ccc5c(c4)OCO5)o3)CC2)c1` the “activity change, negative = inhibition” value was inactive: -5.24%. With `CC(C)(C)C1CCc2c(sc(NC(=O)c3ccncc3)c2C(=O)Nc2ccccc2Cl)C1` (stereo unspecified) the “activity change, negative = inhibition” value was inactive: 7.81%. With `COc1ccc(NS(=O)(=O)c2ccc(NS(=O)(=O)c3ccc4c(c3)OCCO4)cc2)cc1` the “outcome” value was “inactive”. For `COc1ccc(NC(=O)N2CCN(c3cc(-c4noc(C)n4)ccc3C)CC2)c(OC)c1`, the “outcome” value was “inactive”. For `COc1ccc(N2CCN(C(=O)CCn3cnc4onc(-c5ccc(F)cc5)c4c3=O)CC2)cc1`, the “outcome” value was “inactive”. For `Cc1cccc(-c2nc3nc(C)cc(N4CCN(c5ccccc5)CC4)n3n2)c1`, the “outcome” value was “inactive”. For `Cc1ccc(-c2nc3c4ccccc4n(Cc4cccc(Cl)c4)c(=O)n3n2)cc1`, the “activity change, negative = inhibition” value was inactive: 16.5%. For `COc1ccc(OC)c(CNC(=O)C2COc3ccccc3C2)c1` (stereo unspecified), the “activity change, negative = inhibition” value was inactive: 3.4%. With `COc1ccc2nc(N3CCN(C(=O)c4ccco4)CC3)sc2c1` the “activity change, negative = inhibition” value was inactive: -6.95%. In the case of `CCc1ccc(S(=O)(=O)c2nnn3c2nc(N2CCCC(C)C2)c2cc(Cl)ccc23)cc1` (stereo unspecified), the “activity change, negative = inhibition” value is reported as inactive: -22.5%. With `CCOC(=O)Cc1ccc(NC(=O)N2CC(CC)Oc3ccccc32)cc1` (stereo unspecified) the “outcome” value was “inactive”. With `CCN1CCN(CCCNC(=O)Cn2nc(C)n3c(cc4cc(C)ccc43)c2=O)CC1` the “activity change, negative = inhibition” value was inactive: 6.63%. With `Clc1ccc(CSc2nc3ncccc3[nH]2)cc1` the “activity change, negative = inhibition” value was inactive: 3.23%. In the case of `CCCc1ccc(NC(=O)C2CCN(c3cnccn3)CC2)cc1`, the “activity change, negative = inhibition” value is reported as inactive: -1.42%. With `Cc1ccc(NC(=O)Cc2ccc(NC(=O)N3CCCCc4ccccc43)cc2)cc1` the “activity change, negative = inhibition” value was inactive: 38.2%. In the case of `COc1cccc(Cn2cc(S(=O)(=O)c3ccc(C)cc3)c(=O)c3cc4c(cc32)OCO4)c1`, the “activity change, negative = inhibition” value is reported as inactive: -13.8%. In the case of `Cc1ccc(NC(=O)CSc2[nH]c(=O)ncc2C)cc1`, the “activity change, negative = inhibition” value is reported as inactive: -0.266%. With `COc1ccc(NC(=O)c2ccco2)cc1NC(=O)COc1ccc(C)cc1C` the “activity change, negative = inhibition” value was inactive: -6.36%. In the case of `O=C(Nc1nonc1-c1ccc(Br)cc1)c1ccco1`, the “activity change, negative = inhibition” value is reported as inactive: -1.2%. For `Cc1nc2ccccc2n1CCc1nc2c3ccccc3nc(SCC(=O)Nc3ccc(C(C)C)cc3)n2n1`, the “activity change, negative = inhibition” value was inactive: -1.84%. For `CSc1cccc(NC(=O)Cn2nnc(C(=O)NCCc3ccccc3)c2N)c1`, the “activity change, negative = inhibition” value was inactive: 6.64%. In the case of `CCN1CCN(C(c2ccccc2)c2c(O)cc(C)n(CCOC)c2=O)CC1` (stereo unspecified), the “activity change, negative = inhibition” value is reported as inactive: 2.68%. In the case of `Cc1cc(Cl)ccc1NC(=O)CN1C(=O)C(=O)c2ccccc21`, the “activity change, negative = inhibition” value is reported as inactive: -7.43%. For `Cc1cccc(N2CCN(c3ccc(C(=O)O)cc3NC(=O)c3ccccc3F)CC2C)c1` (stereo unspecified), the “outcome” value was “inactive”. With `Cn1c(=O)n(CCc2ccccc2)c(=O)c2c1nc1n2CCN1c1ccc(Cl)cc1` the “outcome” value was “inactive”. In the case of `COc1ccc(S(=O)(=O)Cc2ccc(C(=O)NC3CCCCC3)o2)cc1`, the “activity change, negative = inhibition” value is reported as inactive: 1.57%. With `COC(=O)C1=C(c2ccccc2)c2ccccc2S(=O)(=O)N1CC(=O)Nc1ccccc1C(F)(F)F` the “activity change, negative = inhibition” value was inactive: -6.15%. For `CCCCC(=O)Nc1ccc(C(=O)OCc2cc(=O)n3nc(C4CC4)sc3n2)cc1`, the “activity change, negative = inhibition” value was inactive: -3.12%. In the case of `CC(C)CC(=O)Nc1c(C(=O)N2CCN(c3ccccc3F)CC2)oc2ccccc12`, the “activity change, negative = inhibition” value is reported as inactive: -2.46%. With `CCN(CC)c1ccc(C(=O)NCc2ccc3c(c2)CCN3C(C)=O)cc1` the “activity change, negative = inhibition” value was inactive: -9.26%. With `Cc1cc(C)c2c(-n3cccc3)c(C(=O)NCCc3ccccc3)sc2n1` the “activity change, negative = inhibition” value was inactive: -8%. With `CC(=O)c1ccc(N2CCN(C(=O)Nc3cccc(F)c3)CC2)cc1` the “outcome” value was “inactive”. For `CC(C(=O)Nc1ccccc1C(F)(F)F)n1nc(-c2ccccc2)c2c(c1=O)CCCC2` (stereo unspecified), the “activity change, negative = inhibition” value was inactive: 54.1%. In the case of `CCOC(=O)C(Cc1c[nH]c2ccccc12)NC(=O)COc1ccc(Cl)cc1` (stereo unspecified), the “activity change, negative = inhibition” value is reported as inactive: -11.3%. In the case of `Cc1c(Cl)cccc1NC(=O)CN1C(=O)CCn2nc(-c3cccn3C)cc21`, the “activity change, negative = inhibition” value is reported as inactive: 6.91%. With `COCCN(CCOC)C(=O)c1cc2c(=O)n3ccccc3nc2n1C` the “activity change, negative = inhibition” value was inactive: 0.0494%. For `Cc1ccc2c(=O)c(C(=O)c3ccccc3)cn(CC(=O)Nc3ccccc3)c2n1`, the “activity change, negative = inhibition” value was inactive: 18.2%. In the case of `CC(C)Oc1ccc(CNC(=O)CCCn2c(=O)c3cccn3c3cccnc32)cc1`, the “activity change, negative = inhibition” value is reported as inactive: 1.43%. In the case of `O=C(NCc1ccc2c(c1)CCN2C(=O)c1ccncc1)c1ccc(Cl)cc1`, the “activity change, negative = inhibition” value is reported as inactive: -10.5%. For `COc1cccc(-c2nnc3n(Cc4ccccc4Cl)c(=O)c4ccccc4n23)c1O`, the “activity change, negative = inhibition” value was inactive: 5.38%. For `COc1cc(-c2nc3ccc(C)cn3c2Nc2ccc(Cl)cc2)ccc1O`, the “outcome” value was “inactive”. With `O=C(CSc1nc(-c2ccccc2)cn1-c1ccccc1)Nc1ccccc1` the “activity change, negative = inhibition” value was inactive: 10.5%. With `CCn1c(NCc2cccc(Cl)c2)nc2ccccc21` the “outcome” value was “inactive”. In the case of `COc1ccc(-n2c(=O)c3ccc(C(=O)NCc4ccc(C)cc4)cc3n(CC(=O)Nc3ccc(C)cc3)c2=O)cc1`, the “outcome” value is reported as “inactive”. In the case of `Cc1ccc(Cn2c(C(=O)O)c(CNCCc3ccco3)c3ccc(C)cc32)cc1`, the “outcome” value is reported as “inactive”. In the case of `Cc1cc(C)c(C(=O)Nc2ccccc2)c(SCC(=O)Nc2ccc(Br)cc2C)n1`, the “activity change, negative = inhibition” value is reported as inactive: 3.39%. For `COc1ccc(-n2cc(C(=O)NCc3cccc(OC)c3)c3ccccc3c2=O)cc1`, the “activity change, negative = inhibition” value was inactive: -4.91%. For `COCCCNC(=O)C1CCN(c2cc(C)nc3c(-c4ccc(OC)c(OC)c4)c(C)nn23)CC1`, the “outcome” value was “inactive”. With `CCOc1cc(-c2nc(-c3ccc(-c4ccc(OC)cc4)nc3OC)no2)cc(OCC)c1OCC` the “activity change, negative = inhibition” value was inactive: 1.93%. For `COc1ccccc1NC(=O)CCn1c(=O)oc2cc(Cl)ccc21`, the “activity change, negative = inhibition” value was inactive: -9.12%. For `COc1ccc(Cl)cc1NC(=O)c1nn(C)c2c1CS(=O)(=O)c1ccccc1-2`, the “activity change, negative = inhibition” value was inactive: 1.63%. For `COC(=O)[C@]12CCC(C)(C)C[C@@H]1[C@@H]1C(=O)C=C3[C@@]4(C)C=C(C#N)C(=O)C(C)(C)[C@@H]4CC[C@@]3(C)[C@]1(C)CC2`, the Potency was active: 2350 nM. In the case of `COc1ccc(-c2cc(C(=O)NCCc3ccccc3)c3cc(C(C)C)ccc3n2)cc1`, the “activity change, negative = inhibition” value is reported as inactive: 5.15%. With `CC(=O)c1ccc(N2CCN(C3C(=O)c4ccccc4N3C(C)=O)CC2)cc1` (stereo unspecified) the “activity change, negative = inhibition” value was inactive: 2.75%. For `O=S(=O)(c1ccc(Br)cc1)c1nnn2c1nc(NCc1cccs1)c1sccc12`, the “outcome” value was “inactive”.

— PubChem BioAssay AID1963576 (National Center for Advancing Translational Sciences (NCATS), 2024)
Potency means the concentration at half of the fitted maximal effect.
